Data as given in the BET-seq Pho4 binding data (Le et al. 2018).
Some of the results follow. Values were computed here from the reads of four pooled replicates and scatter widely.

These sequences were tested against T1, Pho4 (S. cerevisiae) (UniProt P07270) (assay: relative binding free energy (BET-seq); higher = weaker binding). Settings: reference: library average.
T1 sequence: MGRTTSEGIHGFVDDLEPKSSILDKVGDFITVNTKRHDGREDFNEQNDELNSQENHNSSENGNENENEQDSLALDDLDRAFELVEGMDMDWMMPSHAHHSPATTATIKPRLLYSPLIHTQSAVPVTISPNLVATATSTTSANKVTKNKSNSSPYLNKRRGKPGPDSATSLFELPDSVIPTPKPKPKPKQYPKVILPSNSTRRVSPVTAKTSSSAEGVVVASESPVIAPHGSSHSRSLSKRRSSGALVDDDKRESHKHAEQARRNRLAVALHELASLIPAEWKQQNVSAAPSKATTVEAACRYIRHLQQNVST

Row | Sequence | relative binding free energy [kcal/mol]
1 | GTTTCCACGTGCTGTG | 0.09
2 | TGGGGCACGTGTGTTA | -0.04
3 | GAGATCACGTGAGTGT | 0.26
4 | TGTGTCACGTGTTAGA | 0.07
5 | GATGGCACGTGTCGTT | -0.04
6 | TGCCTCACGTGGGTGA | 0.06
7 | ATTATCACGTGCGGGA | 0.13
8 | CTTGGCACGTGGAGGC | -0.02
9 | AGACGCACGTGTCGTG | -0.05
10 | GATATCACGTGGCTTG | 0.13
11 | GGTTCCACGTGAGAGT | 0.42
12 | GGGACCACGTGAGGTT | 0.21
13 | AGTGACACGTGGTTAG | -0.12
14 | TAATACACGTGGGCGT | -0.22
15 | GTTTGCACGTGATAAT | 0.18
16 | TAAGCCACGTGATGGT | 0.1
17 | ATTTGCACGTGGTTCT | -0.09
18 | GTGATCACGTGTGTTT | 0.24
19 | GGGGTCACGTGCTGAT | 0.05
20 | TATAGCACGTGATGGA | 0.11
21 | GAGATCACGTGTATTG | 0.14
22 | GCTTACACGTGGGTGT | 0.08
23 | TGAGACACGTGTATTG | -0.11

Row | Sequence | relative binding free energy [kcal/mol]
24 | AAGGGCACGTGCTTTG | -0.07
25 | TTGCTCACGTGTTTTG | 0.09
26 | TATGTCACGTGAGAGC | 0.27
27 | TAAATCACGTGTAAAT | 0.3
28 | TGAGCCACGTGTGTTG | -0.03
29 | GTTGACACGTGTATTA | 0.19
30 | GTGGCCACGTGTTAGT | 0.06
31 | GATATCACGTGGGGCT | 0.02
32 | GAGGGCACGTGTTGTA | 0
33 | AGTTGCACGTGCTGGC | -0.07
34 | CATGGCACGTGCTGGG | -0.17
35 | ATGCACACGTGGCGTG | -0.06
36 | TCGTGCACGTGCGCGT | -0.02
37 | AGTGTCACGTGAAGCA | 0.35
38 | GTTTACACGTGCGTAG | 0.07
39 | TGGTTCACGTGACAGA | 0.32
40 | ATTGTCACGTGCTTTT | 0.05
41 | TATTACACGTGATATA | 0.12
42 | TGGTCCACGTGGGAGT | -0.01
43 | TTATTCACGTGACGGA | 0.22
44 | TGATGCACGTGTGATT | 0.09
45 | TGTGACACGTGAAAGC | 0.36
46 | GGCGGCACGTGGATTA | 0.17

Row | Sequence | relative binding free energy [kcal/mol]
47 | GTGAACACGTGGGAGC | -0.06
48 | TCGCGCACGTGAAGGG | 0.12
49 | GCTCGCACGTGTGGAG | 0.09
50 | CGGGGCACGTGAGGGG | 0.19
51 | GTGTGCACGTGAGGTA | 0.14
52 | CTCGGCACGTGTCGGG | -0.01
53 | ATTATCACGTGATCTT | 0.18
54 | GAGTGCACGTGTTATA | 0
55 | CCGGGCACGTGGTGTG | -0.27
56 | TCAGCCACGTGGGGTG | -0.24
57 | ATGTACACGTGAAGTA | 0.19
58 | GTGAGCACGTGCAGTT | -0.12
59 | GGATGCACGTGTGGCT | 0.02
60 | GATGGCACGTGTGAAT | 0.16
61 | GGGGGCACGTGTCGGC | -0.11
62 | GTTGGCACGTGGTCGG | -0.13
63 | TGGTGCACGTGTGGTA | 0.03
64 | CGGGGCACGTGTCAGT | -0.1
65 | TCGGGCACGTGGCCGG | -0.11
66 | GCGAGCACGTGTTGTT | -0.18
67 | TTGGACACGTGGAATG | 0.12
68 | AAGGGCACGTGATCTT | -0.08
69 | TTATGCACGTGATTGA | 0.04

Row | Sequence | relative binding free energy [kcal/mol]
70 | TTGATCACGTGACTTG | 0.24
71 | GGTTACACGTGAATTG | 0.28
72 | GTGCGCACGTGTCTGG | -0.15
73 | TATAGCACGTGTCGAT | 0.05
74 | TGTTACACGTGTGGAA | 0.26
75 | TAATGCACGTGAGTAT | 0.13
76 | AAATGCACGTGGTGTC | -0.05
77 | GATAGCACGTGGGGTT | -0.01
78 | AGGGGCACGTGGGGCC | -0.23
79 | ATTAACACGTGTGATT | 0.06
80 | TTCTTCACGTGTAGGG | 0.32
81 | CTGGGCACGTGGTTGT | -0.09
82 | AGGGACACGTGGTTAT | 0.18
83 | TAGTTCACGTGAGATT | 0.51
84 | AGTGCCACGTGGGCTG | -0.32
85 | TGTTGCACGTGACATG | 0.11
86 | TTAAGCACGTGTGAGA | -0.04
87 | GAACGCACGTGTTGGG | -0.03
88 | GTTTTCACGTGCGTTG | 0.31
89 | TGAGGCACGTGGCCGT | -0.25
90 | TTCGTCACGTGGCTGG | 0.14
91 | TGTGGCACGTGTCTCT | -0.15
92 | AGGGGCACGTGTTACT | -0.07

Row | Sequence | relative binding free energy [kcal/mol]
93 | ATGGGCACGTGTGTTT | -0.05
94 | GTTGGCACGTGCTTGA | -0.16
95 | GGGGACACGTGATCGT | 0.05
96 | TAACGCACGTGTGCGG | -0.03
97 | GTTTTCACGTGGATAG | 0.3
98 | TGGTACACGTGCGTTG | 0.03
99 | TTGTACACGTGAAATT | 0.36
100 | ATAGTCACGTGAGAGG | 0.29
101 | GGAAGCACGTGCTGGT | -0.06
102 | GCGTGCACGTGAGCGG | 0.06
103 | TGGCGCACGTGGGCGG | -0.19
104 | GAGGTCACGTGTTGTG | 0.14
105 | TCGTGCACGTGCAGTG | -0.16
106 | AATTGCACGTGTTAGA | -0.01
107 | ACGCTCACGTGTGGGG | 0.24
108 | AGAGCCACGTGGGGTC | -0.16
109 | ATCGGCACGTGGTTTT | -0.08
110 | CTTGGCACGTGGAAAG | 0.05
111 | TTAGACACGTGATGCG | 0.01
112 | AGGTGCACGTGCCGGC | 0.03
113 | GTATTCACGTGGGGCA | 0.09
114 | GAATACACGTGGGTTT | -0.02
115 | TTTGTCACGTGTAGGA | 0.08
